In all, about 310,000 compounds went through this assay and about 14,000 (4.5%) showed an effect of 50% or more. The effect is printed as a negative number. Some of the results follow.
The compounds below were run against human ether-à-go-go-related gene (hERG) potassium channel (human, UniProt Q12809) (assay: primary screen, population patch clamp on CHO cells stably expressing hERG).
Chain of human ether-à-go-go-related gene (hERG) potassium channel (Q12809 whole entry, looked up): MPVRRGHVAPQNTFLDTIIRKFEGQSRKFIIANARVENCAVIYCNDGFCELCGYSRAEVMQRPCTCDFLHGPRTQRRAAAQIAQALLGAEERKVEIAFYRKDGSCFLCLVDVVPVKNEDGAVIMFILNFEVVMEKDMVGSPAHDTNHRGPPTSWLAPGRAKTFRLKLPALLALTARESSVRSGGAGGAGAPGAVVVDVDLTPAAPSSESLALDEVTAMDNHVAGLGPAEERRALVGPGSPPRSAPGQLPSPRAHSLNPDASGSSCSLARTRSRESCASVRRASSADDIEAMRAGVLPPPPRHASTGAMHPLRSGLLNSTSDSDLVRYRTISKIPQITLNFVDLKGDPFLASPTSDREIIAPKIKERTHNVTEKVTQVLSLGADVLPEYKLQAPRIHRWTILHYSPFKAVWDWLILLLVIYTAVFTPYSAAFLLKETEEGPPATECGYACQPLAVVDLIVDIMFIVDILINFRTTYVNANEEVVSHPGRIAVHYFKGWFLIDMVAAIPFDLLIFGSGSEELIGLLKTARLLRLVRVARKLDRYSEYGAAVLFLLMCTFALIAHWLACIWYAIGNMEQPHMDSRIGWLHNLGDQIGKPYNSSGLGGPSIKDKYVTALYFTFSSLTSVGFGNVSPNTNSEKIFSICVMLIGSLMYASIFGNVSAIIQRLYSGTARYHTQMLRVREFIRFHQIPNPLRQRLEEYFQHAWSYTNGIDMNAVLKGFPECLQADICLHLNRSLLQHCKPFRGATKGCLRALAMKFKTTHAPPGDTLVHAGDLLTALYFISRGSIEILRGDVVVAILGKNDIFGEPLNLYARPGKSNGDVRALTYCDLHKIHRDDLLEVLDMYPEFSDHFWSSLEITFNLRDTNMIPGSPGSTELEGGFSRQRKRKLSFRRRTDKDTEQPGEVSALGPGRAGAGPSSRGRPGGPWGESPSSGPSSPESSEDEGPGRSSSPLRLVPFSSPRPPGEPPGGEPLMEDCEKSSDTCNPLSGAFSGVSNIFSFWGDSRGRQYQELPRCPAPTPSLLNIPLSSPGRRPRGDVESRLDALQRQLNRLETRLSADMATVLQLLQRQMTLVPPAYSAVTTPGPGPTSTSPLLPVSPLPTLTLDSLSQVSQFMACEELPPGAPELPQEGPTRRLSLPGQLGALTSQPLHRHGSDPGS
In the case of `O=S(=O)(c1ccc(F)cc1)N1CCN(c2ccccc2)CC1`, the “hERG current change (%, negative = inhibition) at 10uM” value is reported as -6.53%.
`CCN1CCC(N2CCN(c3ccc(F)cc3)CC2)CC1` was tested, and the “hERG current change (%, negative = inhibition) at 10uM” value was -5.34%.
`CCN(Cc1cc2cc(C)ccc2[nH]c1=O)S(=O)(=O)c1ccccc1` was tested, and the “hERG current change (%, negative = inhibition) at 10uM” value was -5.18%.
For `COc1ccc(C2c3sc(=O)[nH]c3SC3C4CCC(C4)C23)cc1` (stereo not shown), the “hERG current change (%, negative = inhibition) at 10uM” value was 4.8%.
For `Cc1cc(NC(=O)c2c(F)c(F)c(F)c(F)c2F)no1`, the “hERG current change (%, negative = inhibition) at 10uM” value was -7.71%.
In the case of `O=C(CSc1cccc2cccnc12)N/N=C/c1ccc(F)cc1`, the “hERG current change (%, negative = inhibition) at 10uM” value is reported as 4.25%.
In the case of `CCc1ccc(-c2nn(Cc3ccccc3)cc2C(=O)NCC2CCCO2)cc1` (stereo not shown), the “hERG current change (%, negative = inhibition) at 10uM” value is reported as -16.3%.
In the case of `Cc1ccc(S(=O)(=O)CC(=O)c2ccccc2)cc1`, the “hERG current change (%, negative = inhibition) at 10uM” value is reported as -3.71%.
In the case of `CCCc1cc(=O)[nH]c(SCc2cc(Cl)ccc2OC(F)F)n1`, the “hERG current change (%, negative = inhibition) at 10uM” value is reported as -8.42%.
In the case of `O=C1C2CC=CCC2C(=O)N1Nc1ccccc1` (stereo not shown), the “hERG current change (%, negative = inhibition) at 10uM” value is reported as 12.7%.
`CCOn1c(-n2nc(C)cc2C)nc2ccccc2c1=O` was tested, and the “hERG current change (%, negative = inhibition) at 10uM” value was 12%.
For `O=c1oc2ccccc2c(Nc2ccc(O)cc2)c1[N+](=O)[O-]`, the “hERG current change (%, negative = inhibition) at 10uM” value was -6.48%.
`O=C(NCCO)C1(c2ccc(Cl)cc2)CCCC1` was tested, and the “hERG current change (%, negative = inhibition) at 10uM” value was 1.22%.
`CCOc1ccc(NC(=O)CN(C)C(=O)Cc2ccsc2)cc1OCC` was tested, and the “hERG current change (%, negative = inhibition) at 10uM” value was -11.2%.
In the case of `Cc1cc(NC(=O)c2c(Br)c(C)nn2C)no1`, the “hERG current change (%, negative = inhibition) at 10uM” value is reported as 3.64%.
For `O=C(c1cc2ccccc2oc1=O)N1CCCCCCC1`, the “hERG current change (%, negative = inhibition) at 10uM” value was 5.11%.
In the case of `CCn1cc(C(=O)NCc2ccco2)c(=O)c2cc(S(=O)(=O)N3CCc4ccccc4C3)ccc21`, the “hERG current change (%, negative = inhibition) at 10uM” value is reported as -15.3%.
With `CCOc1ccccc1NC(=O)C1C2CCC(O2)C1C(=O)O` (stereo not shown) the “hERG current change (%, negative = inhibition) at 10uM” value was 12.3%.
For `O=C(CNC(=S)NC(=O)c1cccc([N+](=O)[O-])c1)c1ccccc1`, the “hERG current change (%, negative = inhibition) at 10uM” value was -0.433%.
With `CC(C)CNC(=O)C(=O)NCC(c1ccc2c(c1)OCO2)N1CCOCC1` (stereo not shown) the “hERG current change (%, negative = inhibition) at 10uM” value was 6.81%.
For `OCCNCC(O)CN1c2ccccc2Sc2ccccc21` (stereo not shown), the “hERG current change (%, negative = inhibition) at 10uM” value was -9.14%.
`CCOC(=O)CNC(=O)CSc1nnc(-c2ccco2)n1Cc1ccco1` was tested, and the “hERG current change (%, negative = inhibition) at 10uM” value was 10.4%.
`Cc1ccc(N2CCN(C(=S)c3ccc(-c4ccccc4[N+](=O)[O-])o3)CC2)cc1` was tested, and the “hERG current change (%, negative = inhibition) at 10uM” value was 19.8%.
With `CCC1=C(OC(=O)N(CC)CC)N2C(=O)OC(=NCCc3c[nH]c4ccccc34)[C@]2(Cc2ccccc2)[C@H]2C1=CC[C@H]1C(=O)N(c3ccccc3)C(=O)[C@H]12` the “hERG current change (%, negative = inhibition) at 10uM” value was 8.56%.
In the case of `COC(=O)c1cc(=O)n(Cc2ccco2)c(=Nc2ccc(F)c(Cl)c2)s1`, the “hERG current change (%, negative = inhibition) at 10uM” value is reported as -9.32%.
`CCNC(=O)Cc1ccc(Br)cc1` was tested, and the “hERG current change (%, negative = inhibition) at 10uM” value was 14%.
In the case of `NC(=O)c1cccnc1OCC(F)(F)F`, the “hERG current change (%, negative = inhibition) at 10uM” value is reported as 2.21%.
In the case of `Nc1c(Cl)cc(Cl)cc1C(=O)OCC(=O)N1CCCC1`, the “hERG current change (%, negative = inhibition) at 10uM” value is reported as -23.9%.
With `CCOc1ccc(NC(=O)CSc2nc3ccccc3nc2N2CCOCC2)cc1` the “hERG current change (%, negative = inhibition) at 10uM” value was -10.6%.
With `Cc1ccc(NC(=O)c2ccc3nsnc3c2)c(Cl)c1` the “hERG current change (%, negative = inhibition) at 10uM” value was 15.1%.
With `CC(NC(=O)c1ccc2c(c1)OCO2)c1cccc(C(F)(F)F)c1` (stereo not shown) the “hERG current change (%, negative = inhibition) at 10uM” value was -20.8%.
For `CC(Sc1nnc(-c2cc3ccccc3o2)n1-c1ccccc1)C(=O)O` (stereo not shown), the “hERG current change (%, negative = inhibition) at 10uM” value was 15.2%.
For `Cc1nc(NC(=O)COC(=O)CCS(=O)(=O)c2ccccc2Cl)c(Cl)cc1Cl`, the “hERG current change (%, negative = inhibition) at 10uM” value was 9.37%.
In the case of `COc1ccc(CN2CCNC(=O)C2CC(=O)NC2CCCCCCC2)cc1OC` (stereo not shown), the “hERG current change (%, negative = inhibition) at 10uM” value is reported as -0.601%.
For `CN(C1CCS(=O)(=O)C1)S(=O)(=O)c1ccc2ccccc2c1` (stereo not shown), the “hERG current change (%, negative = inhibition) at 10uM” value was -15.3%.
In the case of `CC1CN(CCc2ccccc2)c2nc3c(c(=O)n(C)c(=O)n3C)n2C1` (stereo not shown), the “hERG current change (%, negative = inhibition) at 10uM” value is reported as -33.9%.
With `CCOC(=O)c1[nH]c(C)c(C(=O)N(C)Cc2ccccc2)c1C` the “hERG current change (%, negative = inhibition) at 10uM” value was -2.65%.
`COc1cccc(NC(=S)N(Cc2ccc(C(=O)O)cc2)Cc2ccc(OC)c(OC)c2)c1` was tested, and the “hERG current change (%, negative = inhibition) at 10uM” value was 7.74%.
For `COCc1ccc(CN2CCCC(CO)(Cc3ccccc3)C2)o1` (stereo not shown), the “hERG current change (%, negative = inhibition) at 10uM” value was -12.4%.
In the case of `COC(=O)[C@H](CC(C)C)NC(=O)Nc1ccc2c(c1)OCCO2`, the “hERG current change (%, negative = inhibition) at 10uM” value is reported as 10.6%.
For `CCN(CC)c1ccc(NC(=O)Nc2ccccc2C(F)(F)F)cc1`, the “hERG current change (%, negative = inhibition) at 10uM” value was 7.72%.
For `O=C(Nc1ccc(N2CCCC2)cc1)c1cc([N+](=O)[O-])ccc1N1CCOCC1`, the “hERG current change (%, negative = inhibition) at 10uM” value was -5.17%.
For `CC(c1nnnn1C1CCCCC1)N(Cc1ccccc1)Cc1cccnc1` (stereo not shown), the “hERG current change (%, negative = inhibition) at 10uM” value was -34.4%.
In the case of `CCOc1nc2ccccc2cc1/C=C/C(=O)O`, the “hERG current change (%, negative = inhibition) at 10uM” value is reported as 11.4%.
`CC1CCCN(c2nc(NCc3ccco3)nc(N)c2[N+](=O)[O-])C1` (stereo not shown) was tested, and the “hERG current change (%, negative = inhibition) at 10uM” value was -54.3%.
In the case of `CCC(NC(=O)CCc1ccccc1)c1ccccc1` (stereo not shown), the “hERG current change (%, negative = inhibition) at 10uM” value is reported as -3%.
`O=S1(=O)CCOCCN1Cc1ccccc1` was tested, and the “hERG current change (%, negative = inhibition) at 10uM” value was 13.2%.
For `COc1c2occc2c(OC)c2c(=O)cc(C)oc12`, the “hERG current change (%, negative = inhibition) at 10uM” value was -6.96%.
In the case of `CCOC(=S)SCC(=O)Nc1ncc(C)s1`, the “hERG current change (%, negative = inhibition) at 10uM” value is reported as 9.73%.
In the case of `COc1ccccc1C(=O)N(C1=NC(C)CS1)c1ccc(Cl)cc1` (stereo not shown), the “hERG current change (%, negative = inhibition) at 10uM” value is reported as 7.94%.
With `O=C(c1cc2ccccc2oc1=O)N(Cc1cccs1)Cc1ccccc1Cl` the “hERG current change (%, negative = inhibition) at 10uM” value was -4.97%.
In the case of `CCN1CCSc2ccc(C(=O)NCc3cccc(F)c3)cc21`, the “hERG current change (%, negative = inhibition) at 10uM” value is reported as 6.46%.
`CCn1c(CSc2n[nH]c(N)n2)nc2cc(C(=O)O)ccc21` was tested, and the “hERG current change (%, negative = inhibition) at 10uM” value was 12.7%.
For `O=C(CCCN1C(=O)c2ccccc2C1=O)N1CCc2ccccc2C1`, the “hERG current change (%, negative = inhibition) at 10uM” value was -27.2%.
With `Cc1cc(NC(=O)CSc2nc(C(C)C)nc3sc4c(c23)CCCC4)no1` the “hERG current change (%, negative = inhibition) at 10uM” value was 9.82%.
`Cn1c(=O)c([N+](=O)[O-])c(N2CCN(Cc3ccc4c(c3)OCO4)CC2)c2ccccc21` was tested, and the “hERG current change (%, negative = inhibition) at 10uM” value was -5.82%.
With `COc1ccc(C(=O)NCCS(=O)(=O)NCC2CCCO2)cc1` (stereo not shown) the “hERG current change (%, negative = inhibition) at 10uM” value was 12%.
With `COc1ccc(S(=O)(=O)N2CCC(C(=O)NC3CC3)CC2)cc1OC` the “hERG current change (%, negative = inhibition) at 10uM” value was -2.79%.

From PMC4336329 (PLoS ONE, 2015)
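Further: peak tail current of the secondary pulse compared with the same well before compound.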
